PubChem BioAssay AID1347165 (National Center for Advancing Translational Sciences (NCATS), 2019)
Among all 220,000 compounds or so, about 5,700 (2.6%) were called active. The shares of active, inactive and inconclusive entries below differ from those in the screen. Calls come from the whole dose curve; as a rule, active = well fitted inhibition curve with a large enough effect; inconclusive = small, poorly fitted or top-dose-only effect; inactive = no such curve, though single readings can be large or run the other way. Potencies beside an inconclusive call are fits to weak or partial responses and may not hold up.

The molecules below were run against Lysine-specific demethylase 5B (Homo sapiens) (UniProt Q9UGL1) (assay: Primary screen for KDM5B Histone Demethylases FDH-coupled qHTS). Details: FDH-coupled NADH fluorescence (FDH is formaldehyde dehydrogenase); activity change, negative = inhibition: at 57.7 µM (top of the series) unless noted.
Method in brief: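 qHTS format, multiple compound concentrations. Buffer 50 mM HEPES pH 7.5/0.01% Tween-20; 200 nM KDM5BΔAP final; 10 min compound preincubation; substrate-mix levels 12.5 µM peptide, 25 µM α-KG, 0.25 mM NAD⁺; 30 min RT; ΔRFU.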
Note: nearly all actives have a fitted effect of over 70% in size.
Potency is the fitted concentration of half-maximal effect; tags give direction and shape of the fitted curve.
Throughout, for activity change, negative = inhibition: 0% is about no effect.

UniProt Q9UGL1, sequence (Q9UGL1 whole entry, looked up): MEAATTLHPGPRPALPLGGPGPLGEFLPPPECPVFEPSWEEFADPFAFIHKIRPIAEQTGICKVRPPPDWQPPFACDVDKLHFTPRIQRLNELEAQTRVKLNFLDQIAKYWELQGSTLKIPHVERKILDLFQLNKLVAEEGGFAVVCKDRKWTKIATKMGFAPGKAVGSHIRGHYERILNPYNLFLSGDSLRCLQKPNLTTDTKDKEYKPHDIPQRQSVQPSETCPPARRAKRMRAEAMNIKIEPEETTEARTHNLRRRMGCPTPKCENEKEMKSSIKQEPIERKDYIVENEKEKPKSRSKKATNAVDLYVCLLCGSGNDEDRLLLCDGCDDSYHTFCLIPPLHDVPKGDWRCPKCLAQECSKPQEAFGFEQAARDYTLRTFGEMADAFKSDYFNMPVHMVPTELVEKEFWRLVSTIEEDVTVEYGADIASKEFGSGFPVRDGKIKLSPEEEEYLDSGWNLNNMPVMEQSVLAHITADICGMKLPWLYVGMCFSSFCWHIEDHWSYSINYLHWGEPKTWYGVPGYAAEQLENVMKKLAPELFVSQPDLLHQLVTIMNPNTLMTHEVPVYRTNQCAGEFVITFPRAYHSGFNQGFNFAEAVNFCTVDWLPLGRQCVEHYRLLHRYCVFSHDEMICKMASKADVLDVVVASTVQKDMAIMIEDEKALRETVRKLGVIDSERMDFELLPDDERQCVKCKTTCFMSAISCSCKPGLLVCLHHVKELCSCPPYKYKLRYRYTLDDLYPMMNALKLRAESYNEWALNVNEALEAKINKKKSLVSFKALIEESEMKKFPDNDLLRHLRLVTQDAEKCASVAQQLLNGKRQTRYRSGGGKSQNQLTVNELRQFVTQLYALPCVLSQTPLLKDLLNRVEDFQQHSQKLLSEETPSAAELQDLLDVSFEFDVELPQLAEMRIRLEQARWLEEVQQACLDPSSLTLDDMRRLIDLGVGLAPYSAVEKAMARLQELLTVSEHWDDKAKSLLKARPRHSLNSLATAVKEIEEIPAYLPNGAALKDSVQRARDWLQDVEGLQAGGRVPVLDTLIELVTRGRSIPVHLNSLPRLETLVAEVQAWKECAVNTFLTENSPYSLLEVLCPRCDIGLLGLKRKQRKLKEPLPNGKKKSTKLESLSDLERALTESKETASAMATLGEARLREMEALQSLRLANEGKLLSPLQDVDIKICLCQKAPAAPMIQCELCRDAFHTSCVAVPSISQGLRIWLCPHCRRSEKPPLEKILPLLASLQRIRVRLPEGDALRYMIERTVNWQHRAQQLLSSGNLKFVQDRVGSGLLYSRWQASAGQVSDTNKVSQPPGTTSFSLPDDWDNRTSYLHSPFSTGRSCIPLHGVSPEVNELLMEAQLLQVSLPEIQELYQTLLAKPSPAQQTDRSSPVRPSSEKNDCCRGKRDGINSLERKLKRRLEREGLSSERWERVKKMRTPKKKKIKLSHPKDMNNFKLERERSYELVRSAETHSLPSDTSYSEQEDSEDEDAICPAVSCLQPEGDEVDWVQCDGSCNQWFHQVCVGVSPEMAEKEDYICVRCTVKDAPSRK

Row | Compound | Potency | activity change, negative = inhibition
1 | O=C(Nc1ccc(C(F)(F)F)cc1)N1CCN(c2ccnc3cc(Cl)ccc23)CC1 | inconclusive: 35.5 µM [inhibitor, single point] | –
2 | COCCNC(=O)c1cn2ccnc(-c3ccc(OC)cc3)c2n1 | active: 20 µM | –
3 | Cc1ccc(-c2cn3ccccc3n2)c(C)c1 | inconclusive: 25.1 µM [inhibitor, partial curve, poor fit] | –
4 | COc1cc(OC)cc(-c2onc(C)c2C(=O)NCc2cccc(C)c2)c1 | inactive | –
5 | O=C(NCCn1c(=O)c(=O)[nH]c2ccccc21)C1CC(=O)N(c2n[nH]c3ccccc23)C1 (stereo not given) | inconclusive: 15.8 µM [inhibitor, partial curve, poor fit] | –
6 | N#Cc1ccccc1CN1CCN(Cc2ccccc2)CC(O)C1 (stereo not given) | inconclusive: 12.6 µM [inhibitor, partial curve, poor fit] | –
7 | CCCn1c(-n2nc(CC)cc2CC)nc2c1c(=O)n(CC(N)=O)c(=O)n2C | inactive | –
8 | COc1ccccc1CNC(=O)c1oc2ccc3c(c2c1C)C(=O)CC(C)(C)O3 | inconclusive: 25.1 µM [inhibitor, partial curve, poor fit] | –
9 | NC(=O)c1ccc(NC(=O)C2CC(=O)N(c3n[nH]c4cc(Br)ccc34)C2)cc1 (stereo not given) | inconclusive: 15.8 µM [inhibitor, partial curve, poor fit] | –
10 | CCCOc1c(C(=O)OC)sc2ccc(NC(=O)c3ccccc3)cc12 | inactive | –
11 | Cc1c(CC(=O)NCCc2ccccc2F)c(=O)oc2cc(O)ccc12 | inactive | –
12 | COc1cc(CNC(C)C)cc(OC)c1 | inconclusive: 12.6 µM [inhibitor, single point] | –
13 | C=CCNC(=O)[C@@H]1Cc2cn(Cc3cc(C)on3)c3cccc(c23)[C@H](CC(C)C)N1 | inconclusive: 39.8 µM [inhibitor, single point] | –
14 | COc1ccc(-c2cc(C(=O)NCC(C)C)c3c(C4CCCN4)nn(C)c3n2)cc1 (stereo not given) | active: 50.1 µM | –
15 | COc1ccc(-c2c(C)c3ccc(O)cc3oc2=O)cc1OC | inconclusive: 28.2 µM [inhibitor, partial curve, poor fit] | –
16 | Cc1c(Cl)cccc1S(=O)(=O)Nc1ccc2sc(NC(=O)c3ccccc3)nc2c1 | inconclusive: 31.6 µM [inhibitor, single point] | –
17 | CC(=O)Nc1cccc(-c2cc3c(ccn3C)c(C(=O)NCc3cccnc3)n2)c1 | inactive | –
18 | COc1ccc(C(=O)Nc2nc3c(s2)C[C@@H]2[C@](C)(CO)[C@H](O)CC[C@@]2(C)[C@@H]3CC(=O)N(C)Cc2ccccc2)cc1 | inconclusive: 35.5 µM [inhibitor, single point] | –
19 | FC(F)(F)c1cc(Cl)c2nc(C34CC5CC(CC(C5)C3)C4)cn2c1 | inactive | –
20 | Cc1ccccc1CNC(=O)Cn1cnc2c1c(=O)n(C)c(=O)n2C | inactive | –
21 | CN1CCc2nc3sc(C(=O)Nc4ccccc4C(F)(F)F)c(N)c3cc2C1 | inconclusive: 31.6 µM [inhibitor, single point] | –
22 | COc1ccc(CC(=O)Nc2nonc2-c2ccc(OC(C)C)cc2)cc1 | inactive | –

Row | Compound | Potency | activity change, negative = inhibition
23 | CCOc1ccc(-n2nc3ccc(NC(=O)c4ccc(-c5cccc(Cl)c5)o4)cc3n2)cc1 | inconclusive: 44.7 µM [inhibitor, single point] | –
24 | CCCCN1C(=O)C(C)=C(C)C1c1cn(C)c2ccccc12 (stereo not given) | inactive | –
25 | COc1cc(C2C3CCCCC3(O)CCN2Cc2ccc(Cl)cc2)ccc1O (stereo not given) | inactive | –
26 | CCN(CC)C(=O)[C@@H]1C[C@H](NC(=O)c2ccc[nH]2)CN1Cc1ccncc1 | inconclusive: 12.6 µM [inhibitor, partial curve] | –
27 | O=[N+]([O-])c1ccc(Cl)c(/C=N/n2c(-c3ccncc3)n[nH]c2=S)c1 | inconclusive: 2 µM [inhibitor, full curve, poor fit] | –
28 | Cc1cccc(C(=O)Nc2ccc(C(=O)N/N=C/c3cccc(C)n3)cc2)c1 | inconclusive: 28.2 µM [inhibitor, single point] | –
29 | CCOC(=O)COc1ccc(C)cc1C(=O)c1ccn2nc(-c3ccc(F)cc3)cc2n1 | inconclusive: 14.1 µM [inhibitor, partial curve, poor fit] | –
30 | Cc1cc(=O)n(CC(=O)Nc2ccc(C)c(C)c2)c(N(C)Cc2ccccc2)n1 | inconclusive: 28.2 µM [inhibitor, partial curve, poor fit] | –
31 | CC1CCN(C(=O)c2cccc(NC(=O)c3nsc4ccccc34)c2)CC1 | inconclusive: 28.2 µM [inhibitor, single point] | –
32 | COc1cccc(CNC(=O)c2c(C)oc3ccn(Cc4ccc(F)cc4)c(=O)c23)c1 | inconclusive: 15.8 µM [inhibitor, partial curve, poor fit] | –
33 | CSc1nc(N)c2c(n1)NC1=C(C(=O)CC(C)(C)C1)C2c1cccs1 (stereo not given) | inconclusive: 28.2 µM [inhibitor, partial curve, poor fit] | –
34 | CCN1CCCC1CNC(=O)CCC1CCN(Cc2cn(CC)c3ccccc23)CC1 (stereo not given) | inconclusive: 8.91 µM [inhibitor, partial curve] | –
35 | COc1ccc(-c2cc(N3CCC(NC(=O)c4cccc(Br)c4)C3)n[nH]2)cc1 (stereo not given) | inconclusive: 11.2 µM [inhibitor, partial curve, poor fit] | –
36 | Cn1c(COc2cc(Cl)ccc2Cl)n[nH]c1=S | inconclusive: 10 µM [inhibitor, partial curve, poor fit] | –
37 | CN1C[C@H](O)C[C@H]1c1nnc2n1CCN(C(=O)C1CCCCC1)CC2 | inactive | –
38 | COc1ccc(-c2ocnc2C(=O)Nc2cc(Cl)ccc2OC)cc1 | inconclusive: 1.58 µM [inhibitor, partial curve, poor fit] | –
39 | COc1cc(C2CC(=O)N3CN(c4ccc(C)cc4)CSC3=C2C#N)cc(Br)c1O (stereo not given) | inconclusive: 7.08 µM [inhibitor, full curve, poor fit] | –
40 | COCCNc1ncnc2c1CN(C1CCNCC1)C(=O)CN2C | active: 50.1 µM | –
41 | COc1ccc(-c2c(C)nn3c2NC(=O)CCC3=O)cc1S(=O)(=O)Nc1ccccc1F | inactive | –
42 | COc1ccc(-c2[nH]nc3ncc(-c4ccc([S+](C)(=O)[O-])cc4)nc23)c(C)c1 | inactive | –
43 | O=C(NC1CC1)c1cc(C2CC2)nc2onc(C3CCNCC3)c12 | inconclusive: 89.1 µM [inhibitor, partial curve] | –
44 | CCCNC(=O)CSc1nc(-c2ccc(OC)cc2)cc(C(F)(F)F)n1 | inconclusive: 3.98 µM [inhibitor, full curve, poor fit] | –

Row | Compound | Potency | activity change, negative = inhibition
45 | CC(=O)Nc1ccc(C(C)=O)cc1OCc1cccc(C)c1 | inactive | –
46 | CCOC(=O)Cn1c(=O)n(-c2ccccc2OC)c2nc(-c3ccc(C(C)C)cc3)nc(C(N)=O)c21 | – | inconclusive: -31% [inhibitor]
47 | CC(C)CC1Nc2ccc(C(=O)NCCCOC(C)C)cc2NC1=O (stereo not given) | inconclusive: 35.5 µM [inhibitor, single point] | –
48 | CNC(=O)NC(=O)C(C)Sc1cccc2cccnc12 (stereo not given) | inconclusive: 25.1 µM [inhibitor, single point] | –
49 | Cc1cc(=O)n(CC(=O)Nc2ccc(F)c(Cl)c2)c(N(C)Cc2ccccc2)n1 | inconclusive: 25.1 µM [inhibitor, single point] | –
50 | CC(=O)N1CCc2cc(C(=O)C(C)n3nnc(-c4cccc(Cl)c4)n3)ccc21 (stereo not given) | inactive | –
51 | CCCCc1cc(=O)oc2c(C)c(OC(C)C(=O)NCc3ccncc3)ccc12 (stereo not given) | inconclusive: 35.5 µM [inhibitor, partial curve, poor fit] | –
52 | Nc1nc(-c2cc3ccccc3o2)cs1 | inactive | –
53 | CCNC(=O)Cn1nc(C)n2c(cc3c(OC)cccc32)c1=O | inconclusive: 7.08 µM [inhibitor, partial curve, poor fit] | –
54 | NC(=O)CCNC(=O)C1=C[C@@H](NC(=O)CC2(CC(=O)O)CCCC2)[C@@H](O)[C@H](O)C1 | inconclusive: 31.6 µM [inhibitor, partial curve, poor fit] | –
55 | CCC(CC)Nc1ncnc2c1CN(C1CCC1)C(=O)CN2C | inconclusive: 31.6 µM [inhibitor, single point] | –
56 | O=C(c1ccc(Nc2nc3ccccc3n3nnnc23)cc1)N1CCN(c2cccc(C(F)(F)F)c2)CC1 | inconclusive: 28.2 µM [inhibitor, single point] | –
57 | CCOC(=O)c1cccc(NS(=O)(=O)c2cc3c(cc2C)NC(=O)CO3)c1 | inconclusive: 35.5 µM [inhibitor, single point] | –
58 | N#Cc1ccccc1COC(=O)COc1ccc2c(c1)CCC2 | inactive | –
59 | Cc1ccc(-c2nnc3ccc(NC4CCCCC4)nn23)nc1 | inconclusive: 31.6 µM [inhibitor, single point] | –
60 | COCCCNc1nc2c([S+](=O)([O-])c3cc(OC)ccc3OC)nnn2c2ccccc12 | active: 79.4 µM | –
61 | COc1cccc(NC(=O)CCc2ncc(-c3ccc(C)cc3)o2)c1 | inactive | –
62 | COc1ccc(N2C(=O)C3(CCCCC3)C2C(=O)N2CCN(c3ccccn3)CC2)cc1 (stereo not given) | inconclusive: 28.2 µM [inhibitor, single point] | –
63 | Cc1cccn2c(=O)c3cc(C(=O)Nc4ccc(Cl)c(Cl)c4)sc3nc12 | inconclusive: 28.2 µM [inhibitor, partial curve, poor fit] | –
64 | Cc1ccc(Nc2ccc(N3CCN(C(=O)c4ccc([N+](=O)[O-])cc4)CC3)nn2)cc1 | inactive | –
65 | CCC(C)NC(=O)Cc1csc2nc(C)c(-c3cc(C)n(-c4cc(Cl)ccc4C)n3)c(=O)n12 (stereo not given) | inconclusive: 25.1 µM [inhibitor, partial curve, poor fit] | –
